The record followed here is publication PMC3407747.

Sequences of proteins named here, by UniProt entry; tags and fusion partners are left off. A change or cut given only in a name is not applied to a line headed by its entry. Residues count along the entry.
UniProt P19491: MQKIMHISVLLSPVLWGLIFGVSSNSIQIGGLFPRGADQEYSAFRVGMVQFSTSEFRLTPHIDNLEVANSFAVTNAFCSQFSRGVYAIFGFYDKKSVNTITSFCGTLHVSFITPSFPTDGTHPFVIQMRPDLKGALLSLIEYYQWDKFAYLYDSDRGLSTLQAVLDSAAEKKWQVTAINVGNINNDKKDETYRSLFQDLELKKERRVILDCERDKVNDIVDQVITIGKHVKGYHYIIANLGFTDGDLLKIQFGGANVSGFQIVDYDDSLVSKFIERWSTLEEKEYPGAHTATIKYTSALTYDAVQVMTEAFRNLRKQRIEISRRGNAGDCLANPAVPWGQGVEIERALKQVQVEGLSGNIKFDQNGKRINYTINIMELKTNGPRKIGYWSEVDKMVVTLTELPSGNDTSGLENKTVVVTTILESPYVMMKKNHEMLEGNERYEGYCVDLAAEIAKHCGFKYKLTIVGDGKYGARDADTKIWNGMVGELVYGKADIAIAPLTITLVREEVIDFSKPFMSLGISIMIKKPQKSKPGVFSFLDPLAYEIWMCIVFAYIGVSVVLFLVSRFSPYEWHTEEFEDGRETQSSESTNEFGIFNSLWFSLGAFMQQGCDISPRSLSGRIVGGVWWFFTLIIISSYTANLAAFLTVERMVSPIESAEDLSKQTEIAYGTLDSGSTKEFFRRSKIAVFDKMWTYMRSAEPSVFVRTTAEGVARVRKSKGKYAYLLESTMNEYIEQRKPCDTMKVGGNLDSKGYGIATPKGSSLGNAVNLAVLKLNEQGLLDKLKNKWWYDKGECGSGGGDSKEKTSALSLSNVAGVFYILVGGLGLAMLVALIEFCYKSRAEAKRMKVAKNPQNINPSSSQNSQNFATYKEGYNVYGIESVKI
GluR2 subunit expressed in HEK-293 T cells (with GluR1): residues 22-883 of P19491
GST-GluR2NT (V22-E545): residues 22-545 of P19491
GST-GluR2NT1 (V22-S271): residues 22-271 of P19491
GST-GluR2NT1-3 (H122-K172): residues 122-172 of P19491
GST-GluR2NT1-3-2 (Y142-K172): residues 142-172 of P19491
GST-GluR2NT2 (K272-I421): residues 272-421 of P19491
GST-GluR2NT3 (L422-E545): residues 422-545 of P19491
GST-GluR2CT (I833-I883): residues 833-883 of P19491
UniProt P04797: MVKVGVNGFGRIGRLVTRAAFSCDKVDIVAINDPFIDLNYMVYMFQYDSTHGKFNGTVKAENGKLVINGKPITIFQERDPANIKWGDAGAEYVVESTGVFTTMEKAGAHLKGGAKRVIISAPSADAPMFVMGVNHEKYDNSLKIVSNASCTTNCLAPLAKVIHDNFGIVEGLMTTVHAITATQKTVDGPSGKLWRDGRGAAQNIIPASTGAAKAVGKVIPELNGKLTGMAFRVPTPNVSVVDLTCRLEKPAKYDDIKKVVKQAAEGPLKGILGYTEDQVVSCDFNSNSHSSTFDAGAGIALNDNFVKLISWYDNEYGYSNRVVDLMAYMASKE
UniProt P04406: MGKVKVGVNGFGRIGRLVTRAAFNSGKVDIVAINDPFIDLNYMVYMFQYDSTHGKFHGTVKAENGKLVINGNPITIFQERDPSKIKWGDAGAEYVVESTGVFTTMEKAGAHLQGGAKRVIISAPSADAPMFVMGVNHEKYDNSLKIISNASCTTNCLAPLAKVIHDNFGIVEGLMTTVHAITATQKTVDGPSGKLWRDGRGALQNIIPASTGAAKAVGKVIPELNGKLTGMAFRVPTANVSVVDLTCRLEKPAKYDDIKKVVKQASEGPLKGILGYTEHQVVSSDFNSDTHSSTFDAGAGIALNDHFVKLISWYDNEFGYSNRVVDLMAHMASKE

No constants are given. Whether binding was seen depends on the method and setting. For some assays here: Binding seen in cells or lysates may run through a third protein. Some binding calls cover weakened binding; strength is not graded here.

The target in test [1] is GluR2 subunit of AMPAR, rat, endogenous (rat (endogenous in hippocampus)) (UniProt P19491). Put plainly: co-IP; GluR2 antibody, solubilized proteins from rat hippocampal tissue; blot for GAPDH.
The target is the same in test [2]. The test is described as follows: co-IP; GluR2 antibody, 500 ug protein from rat hippocampal neurons, with or without 100 uM kainic acid and pre-incubation with peptide.
The target is the same in test [3]. Put plainly: co-IP; GluR2 antibody; biotinylated (cell surface) fraction of primary rat hippocampal neurons labelled with sulfo-NHS-LC-biotin, RIPA buffer, streptavidin beads.
In another test the target is GST-GluR2CT (I833-I883) (UniProt P19491). Put plainly: pull-down; GST fusion proteins used for affinity purification from solubilized rat hippocampal lysates; Western blot with a GAPDH antibody; only the target purified.
The target of another test is GST-GluR2NT (V22-E545) (UniProt P19491). Described as above.
For test [4], the target named is GST-GluR2NT1 (V22-S271) (UniProt P19491). The description is as above.
Test [5] has as its target GST-GluR2NT1-3 (H122-K172) (UniProt P19491). The test is described as above.
Test [6] addresses GST-GluR2NT1-3-2 (Y142-K172) (UniProt P19491). The description is as above.
In test [7] the target is GST-GluR2NT2 (K272-I421) (UniProt P19491). The test is described as above.
In test [8] the target is GST-GluR2NT3 (L422-E545) (UniProt P19491). Described as above.
The target of test [9] is GluR2 subunit of AMPAR, rat, endogenous (rat (endogenous in hippocampus)) (UniProt P19491). The test is described as follows: condition: only in the non-biotinylated (intracellular) fraction; co-IP; GluR2 antibody; non-biotinylated (intracellular) fraction of primary rat hippocampal neurons labelled with sulfo-NHS-LC-biotin.
Test [10] concerns the target GluR2 subunit expressed in HEK-293 T cells (with GluR1) (UniProt P19491). Put plainly: co-IP; GluR2 antibody, 500 ug protein from HEK-293 T cells expressing GluR1/2, with or without 100 uM glutamate and pre-incubation with peptide.
Test [11] deals with GST-GluR2NT1 (V22-S271) (UniProt P19491). Put plainly: in vitro binding assay; in vitro translated [35S]-GAPDH probe with GST fusion proteins; as previously described (refs 85-87); only the target purified.
Test [12] addresses GST-GluR2NT1-3 (H122-K172) (UniProt P19491). The description is as above.
Test [13] has as its target GST-GluR2NT1-3-2 (Y142-K172) (UniProt P19491). The test is described as above.
For test [14], the target named is GST-GluR2NT2 (K272-I421) (UniProt P19491). The description is as above.
The target of test [15] is GST-GluR2NT3 (L422-E545) (UniProt P19491). The test is described as above.

On to “GAPDH (glyceraldehyde-3-phosphate dehydrogenase), rat, endogenous (from UniProt P04797 1-333) (enzyme)”, for which the binding entry in test [1] was “binds”; in [2], “binds”; in [3], “binds”; with GST-GluR2CT (I833-I883), “no binding”; in the test with GST-GluR2NT (V22-E545), “binds”; in the test with GST-GluR2NT1 (V22-S271) [4], “binds”. Moreover, the binding result was “binds” in [5]; “binds” in test [6]; “no binding” in the test with GST-GluR2NT2 (K272-I421) [7]; “no binding” in the test with GST-GluR2NT3 (L422-E545) [8]; “no binding” in test [9].
Consider “GAPDH, endogenous in HEK-293 T cells (from UniProt P04406 1-335) (enzyme)”, for which the binding entry in test [10] is “binds”.
On to “in vitro translated [35S]-GAPDH probe (from UniProt P04797 1-333) (enzyme)”, for which the binding entry with GST-GluR2NT1 (V22-S271) [11] is on record as “binds”; in test [12], “binds”; in test [13] it was “binds”; with GST-GluR2NT2 (K272-I421) [14], “no binding”; in the test with GST-GluR2NT3 (L422-E545) [15], “no binding”.
